{
  "source": "the supplement of paper PMC8728848",
  "assay_in_all_cases": "glycan array binding signal (z-score within array); higher = stronger binding",
  "conditions_in_all_cases": "glycan notation: IUPAC condensed, linker removed",
  "key": {"[1]": {"biological_target": "Fuc(a1-2)[GalNAc(a1-3)]Gal(b1-3)GlcNAc(b1-3)GalNAc", "procedure,_shortened": "(§1)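 Negative Z-scores can be read as non-binding. The Z-score is calculated within each array and then averaged across arrays of one protein sequence at different concentrations or buffers and across linkers. Arrays, 3228 in all, were curated from the Consortium for Functional Glycomics database and kept only where the protein sequence was available.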"}, "[2]": {"biological_target": "Fuc(a1-2)[GalNAc(a1-3)]Gal(b1-3)GlcNAc(b1-6)GalNAc", "procedure,_shortened": "as §1"}, "[3]": {"biological_target": "Fuc(a1-2)[GalNAc(a1-3)]Gal(b1-4)Glc", "procedure,_shortened": "as §1"}, "[4]": {"biological_target": "Fuc(a1-2)[GalNAc(a1-3)]Gal(b1-4)GlcNAc", "procedure,_shortened": "as §1"}, "[5]": {"biological_target": "Fuc(a1-2)[GalNAc(a1-3)]Gal(b1-4)GlcNAc(b1-2)Man", "procedure,_shortened": "as §1"}, "[6]": {"biological_target": "Fuc(a1-2)[GalNAc(a1-3)]Gal(b1-4)GlcNAc(b1-2)Man(a1-3)[Fuc(a1-2)[GalNAc(a1-3)]Gal(b1-4)GlcNAc(b1-2)Man(a1-6)]Man(b1-4)GlcNAc(b1-4)GlcNAc", "procedure,_shortened": "as §1"}, "[7]": {"biological_target": "Fuc(a1-2)[GalNAc(a1-3)]Gal(b1-4)GlcNAc(b1-2)Man(a1-3)[Fuc(a1-2)[GalNAc(a1-3)]Gal(b1-4)GlcNAc(b1-2)Man(a1-6)]Man(b1-4)GlcNAc(b1-4)[Fuc(a1-6)]GlcNAc", "procedure,_shortened": "as §1"}, "[8]": {"biological_target": "Fuc(a1-2)[GalNAc(a1-3)]Gal(b1-4)GlcNAc(b1-3)Gal(b1-4)GlcNAc", "procedure,_shortened": "as §1"}, "[9]": {"biological_target": "Fuc(a1-2)[GalNAc(a1-3)]Gal(b1-4)GlcNAc(b1-3)Gal(b1-4)GlcNAc(b1-3)Gal(b1-4)GlcNAc", "procedure,_shortened": "as §1"}, "[10]": {"biological_target": "Fuc(a1-2)[GalNAc(a1-3)]Gal(b1-4)GlcNAc(b1-3)GalNAc", "procedure,_shortened": "as §1"}, "[11]": {"biological_target": "Fuc(a1-2)[GalNAc(a1-3)]Gal(b1-4)GlcNAc(b1-3)[Fuc(a1-2)[GalNAc(a1-3)]Gal(b1-4)GlcNAc(b1-6)]GalNAc", "procedure,_shortened": "as §1"}, "[12]": {"biological_target": "Fuc(a1-2)[GalNAc(a1-3)]Gal(b1-4)GlcNAc(b1-6)GalNAc", "procedure,_shortened": "as §1"}, "[13]": {"biological_target": "Fuc(a1-2)[GalNAc(a1-3)]Gal(b1-4)[Fuc(a1-3)]GlcNAc", "procedure,_shortened": "as §1"}, "[14]": {"biological_target": "Fuc(a1-2)[GalNAc(a1-3)]Gal(b1-4)[Fuc(a1-3)]GlcNAc(b1-3)GalNAc", "procedure,_shortened": "as §1"}, "[15]": {"biological_target": "Fuc(a1-2)[GalNAc(a1-4)]Gal(b1-4)GlcNAc", "procedure,_shortened": "as §1"}, "[16]": {"biological_target": "Fuc(a1-2)[GalNAc(b1-3)]Gal", "procedure,_shortened": "as §1"}, "Fuc(a1-3)GlcNAc": {"biological_target": "Fuc(a1-3)GlcNAc", "procedure,_shortened": "as §1"}, "[17]": {"biological_target": "Fuc(a1-3)[Gal(b1-4)]Glc6S", "procedure,_shortened": "as §1"}, "[18]": {"biological_target": "Fuc(a1-3)[Gal(b1-4)]GlcNAc", "procedure,_shortened": "as §1"}, "[19]": {"biological_target": "Fuc(a1-3)[Gal(b1-4)]GlcNAc(b1-2)Man", "procedure,_shortened": "as §1"}, "[20]": {"biological_target": "Fuc(a1-3)[Gal(b1-4)]GlcNAc(b1-2)Man(a1-3)[Fuc(a1-3)[Gal(b1-4)]GlcNAc(b1-2)Man(a1-6)]Man(b1-4)GlcNAc(b1-4)GlcNAc", "procedure,_shortened": "as §1"}, "[21]": {"biological_target": "Fuc(a1-3)[Gal(b1-4)]GlcNAc(b1-2)Man(a1-3)[Fuc(a1-3)[Gal(b1-4)]GlcNAc(b1-2)Man(a1-6)]Man(b1-4)GlcNAc(b1-4)[Fuc(a1-6)]GlcNAc", "procedure,_shortened": "as §1"}, "[22]": {"biological_target": "Fuc(a1-3)[Gal(b1-4)]GlcNAc(b1-3)Gal(b1-3)[Fuc(a1-4)]GlcNAc", "procedure,_shortened": "as §1"}, "[23]": {"biological_target": "Fuc(a1-3)[Gal(b1-4)]GlcNAc(b1-3)Gal(b1-4)[Fuc(a1-3)]GlcNAc", "procedure,_shortened": "as §1"}, "[24]": {"biological_target": "Fuc(a1-3)[Gal(b1-4)]GlcNAc(b1-3)Gal(b1-4)[Fuc(a1-3)]GlcNAc(b1-3)Gal(b1-4)[Fuc(a1-3)]GlcNAc", "procedure,_shortened": "as §1"}, "[25]": {"biological_target": "Fuc(a1-3)[Gal(b1-4)]GlcNAc(b1-3)GalNAc", "procedure,_shortened": "as §1"}, "[26]": {"biological_target": "Fuc(a1-3)[Gal(b1-4)]GlcNAc(b1-6)GalNAc", "procedure,_shortened": "as §1"}, "[27]": {"biological_target": "Fuc(a1-3)[Gal(b1-4)]GlcNAc(b1-6)[Gal(b1-3)GlcNAc(b1-3)]Gal(b1-4)Glc", "procedure,_shortened": "as §1"}, "[28]": {"biological_target": "Fuc(a1-3)[Gal(b1-4)]GlcNAc6S", "procedure,_shortened": "as §1"}, "[29]": {"biological_target": "Fuc(a1-3)[Gal3S(b1-4)]Glc", "procedure,_shortened": "as §1"}, "[30]": {"biological_target": "Fuc(a1-3)[Gal3S(b1-4)]GlcNAc", "procedure,_shortened": "as §1"}, "[31]": {"biological_target": "Fuc(a1-3)[Gal3S(b1-4)]GlcNAc6S", "procedure,_shortened": "as §1"}, "[32]": {"biological_target": "Fuc(a1-3)[GalNAc(b1-4)]GlcNAc", "procedure,_shortened": "as §1"}, "[33]": {"biological_target": "Fuc(a1-3)[GalNAc(b1-4)]GlcNAc6S", "procedure,_shortened": "as §1"}, "Fuc(a1-4)GlcNAc": {"biological_target": "Fuc(a1-4)GlcNAc", "procedure,_shortened": "as §1"}, "Fuc(b1-3)GlcNAc": {"biological_target": "Fuc(b1-3)GlcNAc", "procedure,_shortened": "as §1"}, "Gal(a1-2)Gal": {"biological_target": "Gal(a1-2)Gal", "procedure,_shortened": "as §1"}},
  "note": "Some of the results follow.",
  "data": [
    {"binder": "CpGal16 (Clavelina picta) (protein) MAKMITNYVGKRIECIMVATDMMSTVFSLASATGDLPFYINFRQRENSIVMNTRVHGKWQYEKSQSSGGMNFYEPFRLVVEVRPSVFKVTVSTMGEEDGITFNLQYSQITIKPDEIVAMHLGYCNLRSELLVTDL", "values": [
      {"measurement": "glycan array binding signal (z-score)", "setting": "[1]", "result": 0.761},
      {"measurement": "glycan array binding signal (z-score)", "setting": "[2]", "result": 3.13},
      {"measurement": "glycan array binding signal (z-score)", "setting": "[3]", "result": 2.27},
      {"measurement": "glycan array binding signal (z-score)", "setting": "[4]", "result": 1.19},
      {"measurement": "glycan array binding signal (z-score)", "setting": "[5]", "result": 2.31},
      {"measurement": "glycan array binding signal (z-score)", "setting": "[6]", "result": 2.46},
      {"measurement": "glycan array binding signal (z-score)", "setting": "[7]", "result": 0.044},
      {"measurement": "glycan array binding signal (z-score)", "setting": "[8]", "result": 2.86},
      {"measurement": "glycan array binding signal (z-score)", "setting": "[9]", "result": 1.88},
      {"measurement": "glycan array binding signal (z-score)", "setting": "[10]", "result": 0.86},
      {"measurement": "glycan array binding signal (z-score)", "setting": "[11]", "result": 0.96},
      {"measurement": "glycan array binding signal (z-score)", "setting": "[12]", "result": 0.062},
      {"measurement": "glycan array binding signal (z-score)", "setting": "[13]", "result": -0.203},
      {"measurement": "glycan array binding signal (z-score)", "setting": "[14]", "result": 1.83},
      {"measurement": "glycan array binding signal (z-score)", "setting": "[15]", "result": -0.452},
      {"measurement": "glycan array binding signal (z-score)", "setting": "[16]", "result": -0.37},
      {"measurement": "glycan array binding signal (z-score)", "setting": "Fuc(a1-3)GlcNAc", "result": -0.387},
      {"measurement": "glycan array binding signal (z-score)", "setting": "[17]", "result": -0.345},
      {"measurement": "glycan array binding signal (z-score)", "setting": "[18]", "result": -0.419},
      {"measurement": "glycan array binding signal (z-score)", "setting": "[19]", "result": -0.436},
      {"measurement": "glycan array binding signal (z-score)", "setting": "[20]", "result": -0.517},
      {"measurement": "glycan array binding signal (z-score)", "setting": "[21]", "result": -0.251},
      {"measurement": "glycan array binding signal (z-score)", "setting": "[22]", "result": -0.257},
      {"measurement": "glycan array binding signal (z-score)", "setting": "[23]", "result": -0.333},
      {"measurement": "glycan array binding signal (z-score)", "setting": "[24]", "result": -0.367},
      {"measurement": "glycan array binding signal (z-score)", "setting": "[25]", "result": -0.233},
      {"measurement": "glycan array binding signal (z-score)", "setting": "[26]", "result": -0.194},
      {"measurement": "glycan array binding signal (z-score)", "setting": "[27]", "result": 0.641},
      {"measurement": "glycan array binding signal (z-score)", "setting": "[28]", "result": -0.08},
      {"measurement": "glycan array binding signal (z-score)", "setting": "[29]", "result": -0.242},
      {"measurement": "glycan array binding signal (z-score)", "setting": "[30]", "result": -0.231},
      {"measurement": "glycan array binding signal (z-score)", "setting": "[31]", "result": -0.265},
      {"measurement": "glycan array binding signal (z-score)", "setting": "[32]", "result": 0.077},
      {"measurement": "glycan array binding signal (z-score)", "setting": "[33]", "result": -0.21},
      {"measurement": "glycan array binding signal (z-score)", "setting": "Fuc(a1-4)GlcNAc", "result": 0.069},
      {"measurement": "glycan array binding signal (z-score)", "setting": "Fuc(b1-3)GlcNAc", "result": -0.31},
      {"measurement": "glycan array binding signal (z-score)", "setting": "Gal(a1-2)Gal", "result": -0.353}
    ]}
  ]
}
